# Out of some 330,000 compounds screened, about 4,200 (1.3%) were called active. Inconclusive means that the source gave no clear call. Such entries were picked first, then a sample of the others. Calls follow the shape of the dose curve; as a rule, active = well fitted activation curve with a large enough effect; inconclusive = small, poorly fitted or top-dose-only effect; inactive = no such curve, though single readings can be large or run the other way. Potencies of inconclusive entries are doubtful fits and often do not repeat.
# Assay: qHTS screen for small molecules that induce genotoxicity in human embryonic kidney (HEK293T) cells expressing luciferase-tagged ELG1; also: nearly all actives have a fitted effect of over 60% in size
# Settings: HEK293T ELG1-luciferase reporter, luminescence, 16 h; series mostly up to 46 µM
# Method in brief: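 Screening used a luciferase reporter fused to human ELG1 in HEK293T cells. Luminescence was read on a CCD plate imager after 16 hr exposure and 30 min ONE-Glo incubation.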
# Potency is read from the fitted curve at half-maximal effect; tags tell the direction and shape of the fitted curve.
row,SMILES,Potency
1,COc1ccc(-n2ncc3c(NC(C)C)ncnc32)cc1,"inconclusive: 0.92 µM [activator, partial curve]"
2,COc1ccc(S(=O)(=O)Nc2cccc(-c3ccc(N4CCCCCC4)nn3)c2)cc1OC,inactive
3,CNc1oc(-c2ccccc2)nc1C#N,"inconclusive: 29.1 µM [activator, single point]"
4,CC(=O)COc1ccc2c3c(c(=O)oc2c1C)CCCCC3,active: 7.31 µM
5,O=C(NCc1ccc(Cl)cc1)c1cc(=O)nc2sc(-c3ccccc3)nn12,"inconclusive: 29.1 µM [activator, partial curve, poor fit]"
6,CCc1ccc(NC(=O)C2CCCN(S(=O)(=O)c3ccc4[nH]c(=O)ccc4c3)C2)cc1 (stereo not drawn),"inconclusive: 20.6 µM [activator, partial curve, poor fit]"
7,Cc1cccc(Oc2coc3cc(O)ccc3c2=O)c1,"inconclusive: 25.9 µM [activator, partial curve, poor fit]"
8,O=C(NCCCN1CCOCC1)c1cc(-c2ccc(O)cc2)on1,inactive
9,COc1ccc(OCCC(=O)OCc2c(C)noc2C)cc1,inactive
10,Nc1nonc1-n1nnc(C(=O)N/N=C/c2ccc(F)cc2)c1-c1ccc2c(c1)OCO2,"inconclusive: 18.3 µM [activator, single point]"
11,Cc1cc(C(=O)N/N=C/c2cc(Br)cc(Br)c2OC(=O)c2ccccc2)n[nH]1,"inconclusive: 32.6 µM [activator, partial curve, poor fit]"
12,CC1C(=O)N2CCCc3cc(NC(=O)C(=O)NCCc4ccccc4)cc1c32 (stereo not drawn),"inconclusive: 29.1 µM [activator, partial curve, poor fit]"
13,CC(C)OC(=O)c1sc2nc3c(cc2c1N)C(=O)CCC3,"inconclusive: 18.4 µM [activator, partial curve, poor fit]"
14,CC1=NN(Cc2ccccc2)C(=O)C1C(c1ccc(Cl)cc1)C(C#N)C#N (stereo not drawn),"inconclusive: 29.1 µM [activator, single point]"
15,CC(=O)c1sc(NC(=O)c2ccccc2)nc1-c1ccccc1,"inconclusive: 2.91 µM [activator, partial curve, poor fit]"
16,Cc1ccc2nc(NC(=O)c3ccco3)sc2c1,active: 0.206 µM
17,COCCN(C(=O)c1cccc(N2C(=O)CCC2=O)c1)c1nc(-c2ccc([N+](=O)[O-])cc2)cs1,inactive
18,O=C1ON=C(c2ccc(Cl)cc2)/C1=C/c1ccc(O)cc1,"inconclusive: 23.1 µM [activator, single point]"
19,Cc1csc(NC(=O)COc2ccc3c(c2)CCC3)n1,"inconclusive: 7.3 µM [activator, partial curve]"
20,CCCCCCOC(=O)C(C#N)c1nc2ccccc2nc1N1CCN(CC)CC1 (stereo not drawn),inactive
21,O=C(COc1ccccc1Cl)c1ccc[nH]1,"inconclusive: 25.9 µM [activator, partial curve, poor fit]"
22,COc1ccc(NC(=O)n2ncc3c(C)cccc32)cc1OC,"inconclusive: 14.6 µM [activator, partial curve, poor fit]"
23,COC(=O)c1cc(-c2ccccc2)sc1N,"inconclusive: 18.4 µM [activator, single point]"

row,SMILES,Potency
1,CC(C)(C)C(=O)Nc1ccc2c(c1)OCCOCCOc1cc(NC(=O)C(C)(C)C)ccc1OCCOCCO2,inactive
2,COc1ccc(N/N=C(/N=Nc2nc(C)cc(=O)[nH]2)c2ccccc2)cc1,active: 2.59 µM
3,CC(=O)c1c(C)[nH]c(C(=O)Nc2ccc(C)cc2Br)c1C,"inconclusive: 9.2 µM [activator, partial curve]"
4,O=[N+]([O-])c1cccc(-c2nnc(-c3ccccc3F)o2)c1,"inconclusive: 14.6 µM [activator, partial curve]"
5,Cc1nn(C(=O)c2cccs2)c(N)c1-c1ccccc1,"inconclusive: 14.6 µM [activator, partial curve]"
6,O=C(Nc1cccn(Cc2c(Cl)cccc2Cl)c1=O)c1ccc(Cl)cc1,"inconclusive: 18.4 µM [activator, partial curve, poor fit]"
7,ClC(=C\c1ccccc1)/C=N/N1CCN(c2ccccn2)CC1,active: 9.2 µM
8,C=CCn1c(=NC(=O)c2cccs2)sc2cc(NC(C)=O)ccc21,"inconclusive: 23.1 µM [activator, partial curve, poor fit]"
9,CCn1c(=O)c([N+](=O)[O-])c(Cl)c2ccccc21,"inconclusive: 20.6 µM [activator, partial curve, poor fit]"
10,Cc1ccc(OCc2cc(C(=O)N(CCO)Cc3cccs3)no2)cc1C,"inconclusive: 8.2 µM [activator, partial curve]"
11,CCc1ccc(NS(=O)(=O)c2cc3c4c(c2)CCN4C(=O)CC3)cc1,"inconclusive: 23.1 µM [activator, single point]"
12,CC1C(=O)N2CCCc3cc(NC(=O)C(=O)NCc4ccccn4)cc1c32 (stereo not drawn),"inconclusive: 23.1 µM [activator, partial curve, poor fit]"
13,COc1ccc(S(=O)(=O)Nc2ccc(S(=O)(=O)N3CCOCC3)cc2)cc1C,inactive
14,CCCC(=O)Nc1sc2c(c1C#N)CCCCC2,"inconclusive: 10.3 µM [activator, partial curve, poor fit]"
15,COc1ccc(-c2nnc3ccc(SCC(=O)Nc4nc5ccccc5s4)nn23)cc1OC,inactive
16,COc1ccc(C(=O)Nc2ccc(-c3nnn(CC(=O)N4CCN(C(=O)c5ccco5)CC4)n3)cc2)cc1,inactive
17,Cc1cc(=O)[nH]c2c(C)cc(S(=O)(=O)N3CCCCC3)cc12,active: 16.4 µM
18,COc1cc(CN2CCC(C(=O)NCCC(C)C)CC2)ccc1OCc1ccccc1,"inconclusive: 18.3 µM [activator, partial curve, poor fit]"
19,CN(CC(=O)Nc1ccccc1Cl)C(=O)c1cccc(S(=O)(=O)N2CCN(Cc3ccccc3)CC2)c1,"inconclusive: 25.9 µM [activator, single point]"
20,N/C(CN1CCCC1=O)=N\OC(=O)c1ccccc1Cl,"inconclusive: 14.6 µM [activator, partial curve]"
21,O=C(COc1ccccc1)Nc1cccc(-c2nc3cc4ccccc4cc3[nH]2)c1,"inconclusive: 0.82 µM [activator, partial curve, poor fit]"
22,CC1O[C@@H](OC2C(O)C(O)C(CO)O[C@H]2OC2C[C@]3(C)C(CC(O)C4[C@@H]([C@]5(C)CC[C@@H](C(C)(C)O)O5)CC[C@]43C)[C@@]3(C)CCC(O)C(C)(C)C23)C(O)C(O)C1O (stereo partly drawn),inactive
23,Cc1cccc(N/C(N)=N/c2nc(CSc3ccc(Cl)cc3)cc(=O)[nH]2)c1,inactive

row,SMILES,Potency
1,COc1ccc(CNC(=O)Cn2cccc2C(=O)c2ccccc2)cc1,"inconclusive: 20.6 µM [activator, partial curve, poor fit]"
2,O=C(NC(=O)c1csnn1)Nc1ccccc1Cl,"inconclusive: 6.51 µM [activator, partial curve, poor fit]"
3,COC(=O)[C@]1(CC(C)C)N[C@H](c2ccc(SC3CCCCC3)cc2)[C@@H]2C(=O)N(C)C(=O)[C@@H]21,inactive
4,CN(C)c1ccc(-c2ccccc2)nn1,active: 8.2 µM
5,Cc1ccc(OCC(=O)Nc2ccccc2[N+](=O)[O-])c(Br)c1,"inconclusive: 20.6 µM [activator, single point]"
6,O=C(Nc1ccc2oc(-c3ccccc3Cl)nc2c1)c1ncn[nH]1,active: 8.2 µM
7,CC1CCc2sc(C(=O)NCC(C)(C)N3CCOCC3)cc2C1 (stereo not drawn),inactive
8,CC(=O)c1sc(NC(=O)c2ccc(C(C)(C)C)cc2)nc1C,"inconclusive: 2.59 µM [activator, partial curve]"
9,Cc1cc(C(=O)N/N=C/c2cccc3ccccc23)c(C)o1,"inconclusive: 23.1 µM [activator, single point]"
10,Fc1cccc(/C=N/N=C/c2cccc(F)c2)c1,"inconclusive: 15.8 µM [activator, partial curve, poor fit]"
11,O=C(CCN1C(=O)COc2ccccc21)NCc1ccco1,inactive
12,O=C(NC1CC1)c1cccc(NC(=O)c2cn3ccccc3n2)c1,inactive
13,Cc1nc2ccc(NC(=O)COc3ccccc3F)cc2s1,"inconclusive: 18.3 µM [activator, partial curve, poor fit]"
14,COc1ccc(-c2[nH]ncc2/C=N/NC(=O)c2cccc([N+](=O)[O-])c2)cc1OC,inactive
15,CN1CCS/C1=C/C=C1/SC(=S)N(Cc2ccccc2)C1=O,"inconclusive: 16.4 µM [activator, partial curve, poor fit]"
16,O=C(CNC(=S)NC(=O)C1CCCCC1)c1ccccc1,"inconclusive: 20.6 µM [activator, partial curve, poor fit]"
17,Cc1ccc(C(=O)Nc2cnc3ccccn3c2=O)cc1,active: 4.61 µM
18,CC(=O)Nc1nc2cc3c(cc2s1)OCO3,"inconclusive: 16.4 µM [activator, partial curve]"
19,CC(=O)N1CCN(CC(=O)Nc2ccc([N+](=O)[O-])cc2Br)CC1,inactive
20,COc1cc(SC)ccc1C(=O)Nc1ccc2ncccc2c1,"inconclusive: 0.501 µM [activator, full curve, poor fit]"
21,CCOc1ccc(N2CC(C(=O)Nc3ccc4c(c3)OCCO4)CC2=O)cc1 (stereo not drawn),"inconclusive: 11.6 µM [activator, partial curve, poor fit]"
22,CCN(c1ccccc1)S(=O)(=O)c1ccc(OC)c(NC(=O)Cn2cnc3c2c(=O)n(C)c(=O)n3C)c1,inactive

# Source: PubChem BioAssay AID504466 (National Center for Advancing Translational Sciences (NCATS), 2011)
